Values joined by “and” are separate entries in the source; they are usually repeats but may differ in a detail not shown here. Equal values may be shown once. Out of some 420,000 compounds screened, about 50,000 (12%) were called active. The shares of active, inactive and inconclusive entries below differ from those in the screen. Calls come from the whole dose curve; as a rule, active = well fitted inhibition curve with a large enough effect; inconclusive = small, poorly fitted or top-dose-only effect; inactive = flat fitted curve, though single readings scatter. Potencies beside an inconclusive call are fits to weak or partial responses and may not hold up.
Assay: qHTS for Inhibitors of human tyrosyl-DNA phosphodiesterase 1 (TDP1): qHTS in cells in presence of CPT; note: nearly all actives have a fitted effect of over 55% in size
Settings: chicken DT40 Tdp1-/-;hTDP1 cells + 20 nM CPT, ATP luminescence, 48 h; activity change, negative = growth inhibition: at 46.2 µM (top of the series) unless noted
Method in brief: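 Chicken DT40 Tdp1-/- cells complemented with human TDP1, 400 cells/well, exposed to compounds plus 20 nM camptothecin for at least 48 h at 37 C; viability read as ATP content by CellTiter-Glo luminescence.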
% is set by controls: 0 for no effect and ±100 for the full control effect; potency is the fitted concentration of half-maximal effect; tags give direction and shape of the fitted curve.

Structure (SMILES)	Potency	activity change, negative = growth inhibition
C[C@]12c3[nH]c4ccc(Cl)cc4c3CCN1C(=O)[C@@H](CC(=O)NCC13CC4CC(CC(C4)C1)C3)C[C@@H]2C(=O)N1CCOCC1	active: 10.3 µM	–
CCOC(=O)c1oc2ccc(S(=O)(=O)n3nc(-c4cc(OC)c(OC)c(OC)c4)cc3N)cc2c1C	inactive	–
NC(=O)c1ccccc1NC(=O)CSc1nc2ccccc2c(=O)[nH]1	inconclusive: 20.6 µM [inhibitor, partial curve]	–
NC1(C(=O)O)CCCCC1c1ccccc1 (stereo unspecified)	inactive	–
Cc1ccc(S(=O)(=O)OCCC2=CC(=O)CCN2Cc2ccccc2)cc1	active: 16.4 µM	–
CC1CCc2c(sc(NC(=O)CCC(=O)O)c2C(=O)NC2CC2)C1 (stereo unspecified)	inconclusive: 29.1 µM [inhibitor, single point]	–
O=C(NC(=S)N1CCCCCC1)c1cccc([N+](=O)[O-])c1	inconclusive: 23.1 µM [inhibitor, single point]	–
Cc1ccc(NC(=O)c2cc(N3C(=O)C=CC3=O)ccc2Cl)cc1C	active: 5.17 µM	–
CC(C)NS(=O)(=O)c1ccc(NC(=O)C(C)OC(=O)CCC2CCCC2)cc1 (stereo unspecified)	inactive	–
CCN(CC)C(=O)[C@H]1C[C@H](CC(=O)NCCCOC)C(=O)N2CCc3c([nH]c4cc(CCC(=O)N(C)C)ccc34)[C@]12C	inactive	–
CCCn1nc(C(=O)OCc2nc(N)nc(Nc3ccccc3C)n2)c2ccccc2c1=O	inactive	–
O=C(COC(=O)C1CCN(S(=O)(=O)c2cc([N+](=O)[O-])ccc2Cl)CC1)Nc1ncc(Cl)cc1Cl	–	inconclusive: -37.5% [inhibitor]
Cc1onc(-c2ccccc2Cl)c1C(=O)O/N=C(\N)c1ccc([N+](=O)[O-])o1	active: 18.4 µM	–
COc1ccc(Cl)cc1NC(=O)C1CCCN(c2ncnc3onc(C)c23)C1 (stereo unspecified)	active: 18.4 µM	–
CCN(CC)C(=O)N1CCc2ccccc2C1CN1C(=O)c2ccccc2C1=O (stereo unspecified)	inconclusive: 16.4 µM [inhibitor, single point]	–
Cc1cc(C)cc(NC(=O)CN2C(=O)NC(Cc3c[nH]c4ccccc34)C2=O)c1 (stereo unspecified)	inconclusive: 20.6 µM [inhibitor, partial curve]	–
CC1(Oc2cnc(Cl)c3ccccc23)CCN(Cc2ccc(OC(F)(F)F)cc2)C1 (stereo unspecified)	inconclusive: 23.1 µM [inhibitor, single point]	–
COc1ccccc1NC(=O)CSc1nc2nccnc2c(=O)n1Cc1cccs1	inconclusive: 20.6 µM [inhibitor, single point]	–
CCc1cc(C(c2cccc(OC)c2)N2CCOCC2)c(NC(=O)c2ccccc2)s1 (stereo unspecified)	inconclusive: 29.1 µM [inhibitor, single point]	–
CCOc1cc(/C=C/C(=O)c2ccc(OC)c(CN3CCOCC3)c2)cc(Br)c1O	inconclusive: 29.1 µM [inhibitor, single point]	–
CCC(C)c1ccccc1N1CC(C(=O)Nc2cc(S(=O)(=O)N3CCOCC3)ccc2OC)CC1=O (stereo unspecified)	inactive	–
CCC(Oc1ccccc1F)C(=O)N1CCC(c2nc3ccccc3s2)CC1 (stereo unspecified)	inconclusive: 18.4 µM [inhibitor, single point]	–
CC(C)C[C@H](NC(=O)N1CCn2c1nc1ccccc12)C(=O)NCc1ccccc1	inconclusive: 25.9 µM [inhibitor, single point]	–
CC1(C)CC(=O)C(C(c2cccnc2)C2C(=O)CC(C)(C)CC2=O)C(=O)C1	inactive	–

Structure (SMILES)	Potency	activity change, negative = growth inhibition
Cc1ccccc1NC(=S)N(CCc1c(C)[nH]c2ccc(F)cc12)Cc1cccnc1	inconclusive: 16.4 µM [inhibitor, single point]	–
Cc1cc2c3c([nH]c2cc1S(=O)(=O)N1CCC2(CC1)OCCO2)CCCC3=O	inconclusive: 25.9 µM [inhibitor, single point]	–
CC(=O)N1c2ccc(S(=O)(=O)NCCC(=O)NCc3ccc(F)cc3)cc2CC1C (stereo unspecified)	inconclusive: 18.4 µM [inhibitor, single point]	–
O=C(CCN1C(=O)c2ccccc2C1=O)N1CCN(Cc2ccc(Cl)cc2Cl)CC1	inconclusive: 16.4 µM [inhibitor, single point]	–
Cc1cccc(NC(=O)COc2ccccc2)c1	inactive	–
CCCCCCCCC(=O)NC(NC(=S)N1CCOCC1)C(Cl)(Cl)Cl (stereo unspecified)	inconclusive: 29.1 µM [inhibitor, single point]	–
CC(C)[C@H](NC(=O)N1c2ccccc2NC(=O)[C@@H]1C(C)C)C(=O)N[C@H](Cc1ccccc1)C(=O)O	inactive	–
O=[N+]([O-])c1ccc(SCCc2ccncc2)cc1	inconclusive: 20.6 µM [inhibitor, single point] and inconclusive: 29.1 µM [inhibitor, single point]	–
CC(C)C[C@@H](CN)NC(=O)c1nc[nH]c1C(=O)N[C@@H](C)C(=O)CNC[C@H](C)NC(=O)c1nc[nH]c1C(=O)N[C@@H](CC(=O)O)C(=O)O	inactive	–
Cc1cccc(C)c1NC(=O)COC(=O)CN1C(=O)C2CCCCC2C1=O (stereo unspecified)	inconclusive: 14.6 µM [inhibitor, single point]	–
O=C(Cn1cnc([N+](=O)[O-])n1)N/N=C/c1cc(Cl)ccc1O	active: 4.61 µM	–
Cc1ccc(NC(=O)CCS(=O)(=O)c2cc3c(cc2Cl)NC(=O)CO3)cc1	inactive	–
COc1ccc(C(=O)NC(=S)N2CCN(C)CC2)cc1Br	inactive	–
CCc1c(C)sc(NC(=O)c2ccco2)c1C(=O)N1CCCCC1	–	inconclusive: -32.5% [inhibitor]
c1ccc(NN=C2c3ccccc3-c3ccccc32)cc1	inconclusive: 4.61 µM [inhibitor, full curve, poor fit]	–
COC(=O)[C@]12CCCCC=C1N(Cc1ccco1)C(=O)[C@H](CC(=O)N1CCC(c3ccccc3)CC1)C2	inconclusive: 20.6 µM [inhibitor, single point]	–
Cc1ccc2oc(-c3ccc(C)c(NC(=O)c4ccc(N5CCC(C)CC5)c([N+](=O)[O-])c4)c3)nc2c1	inactive	–
Cc1cccc(NC(=O)c2cc3c(=O)n4cccc(C)c4nc3s2)c1C	active: 1.84 µM	–
CCC(C)(C)c1ccc(OCC(=O)N(C)C)c(C(C)(C)CC)c1	inconclusive: 18.4 µM [inhibitor, single point]	–
Cc1[nH]ncc1-c1ccccc1Cl	inactive	–
COc1ccc(-c2csc(/C(C#N)=C(\O)CSc3nccn3C)n2)cc1OC	inconclusive: 13 µM [inhibitor, partial curve]	–
Cc1cc(C)c2c(CC(=O)N3CCCC3)coc2c1	inactive	–
COc1ccc(S(=O)(=O)N2CCOCC2)cc1NC(=O)C1COc2ccccc2O1 (stereo unspecified)	inconclusive: 29.1 µM [inhibitor, single point]	–
COc1ccccc1NC(=O)C1=C(C)Nc2nnnn2C1c1ccncc1 (stereo unspecified)	inconclusive: 25.9 µM [inhibitor, single point]	–

Structure (SMILES)	Potency	activity change, negative = growth inhibition
Cc1cc(S(=O)(=O)N2CCCC2)ccc1OCC(=O)N1CCOCC1	inactive	–
Cc1cc(C)c[n+](CC(=O)c2ccc(NC(=O)c3ccccc3)cc2)c1	inconclusive: 29.1 µM [inhibitor, single point]	–
CCn1c(=N)n(CC(O)c2ccccc2)c2ccccc21 (stereo unspecified)	inactive	–
Cc1cccc(NC(=O)c2ccc3snnc3c2)c1C	inactive	–
O=C(c1cnccn1)N1CCC2(CC1)CN(Cc1nccs1)C2	inactive	–
N=c1n(CC(=O)c2ccc([N+](=O)[O-])cc2)c2ccccc2n1Cc1ccccc1	active: 7.31 µM	–
COc1ccc(CNC(=O)c2cc(-c3cc(C)cc(C)c3O)n[nH]2)cc1	inconclusive: 18.4 µM [inhibitor, single point]	–
Cc1ccc(-c2cc(=O)[nH]c3ccccc23)cc1	active: 9.2 µM	–
O=c1c2cc3c(cc2n(Cc2ccc(F)cc2)c(=O)n1Cc1nc(-c2ccccc2)no1)OCO3	inactive	–
O=C(Nc1ccccc1)c1ccccc1C(=O)N1CCCCC1	inactive	–
O=C(CSc1cccc[n+]1[O-])Nc1ccccc1Oc1ccccc1	active: 0.92 µM	–
N#Cc1ccccc1COC(=O)CCCC1=NS(=O)(=O)c2ccccc2N1	inactive	–
S=C(c1c[nH]c2ccccc12)N1CCOCC1	inconclusive: 16.4 µM [inhibitor, single point]	–
C=CCn1c(-c2cc3c(s2)CCC(CC)C3)n[nH]c1=S (stereo unspecified)	inconclusive: 23.1 µM [inhibitor, single point]	–
CCOC(=O)C1=C(Nc2ccccc2)CSC1	inactive	–
CC(C)OCCCNC(=O)c1cc(Sc2ccc(F)cc2)nc2ccccc12	inconclusive: 20.6 µM [inhibitor, single point]	–
CCN1CCN(C(=O)C2CCCN(S(=O)(=O)c3cccc4nsnc34)C2)CC1 (stereo unspecified)	inactive	–
CC(C)CN(CCCNC(=O)CN1N=C(c2ccc(Cl)cc2)CCC1=O)CC(C)C	inconclusive: 25.9 µM [inhibitor, single point]	–
C[C@H](CO)N1C[C@H](C)[C@@H](CN(C)S(=O)(=O)c2cccs2)Oc2ccc(NC(=O)Cc3ccccc3)cc2C1=O	inconclusive: 29.1 µM [inhibitor, single point]	–
Cc1cc(NCCCn2ccnc2)n2nc(C)c(-c3ccc(Cl)cc3)c2n1	active: 16.4 µM	–
CCOC(=O)C1=C[C@@H](C2CCCC2)N(S(=O)(=O)c2ccc([N+](=O)[O-])cc2)[C@H]1c1ccccc1	active: 20.6 µM	–
CCOc1cc(/C=C/c2nc3ccccc3c(=O)[nH]2)ccc1O	inconclusive: 29.1 µM [inhibitor, single point]	–
O=C(COc1coc(CN2CCN(c3ccc(F)cc3)CC2)cc1=O)NC1CCCC1	inconclusive: 18.4 µM [inhibitor, partial curve]	–

Reference: PubChem BioAssay AID686979 (National Center for Advancing Translational Sciences (NCATS), 2013)
